From PubChem BioAssay AID322 (DTP/NCI, 2004)
Toxic doses and inconclusive results are not listed. The source holds more than one record for some entries. The other results are left out here. There may be further records. Values that stand side by side are repeats across runs, samples, wells, individuals or studies.

Tested on: CD2F1 mice, P388/ADR leukemia ip, median survival T/C
Test: NCI In Vivo Anticancer Drug Screen. Data for tumor model P388 Leukemia resistant to Adriamycin; NSC 123127, Developed at Scr 08 (intraperitoneal) in CD2F1 (CDF1) mice
Settings: endpoint: median survival time, higher = longer survival
Protocol: The antitumor activity of compounds was measured in mice bearing transplantable tumors. Survival or tumor size were measured and the results are expressed as the measurement made in the treated group (T) divided by the measurement made in the vehicle treated control group (C). The tumor model used in this assay is P388 Leukemia resistant to Adriamycin; NSC 123127, Developed at Scr 08 (intraperitoneal) in CD2F1 (CDF1) mice

**Q.** For `COc1cc(NCc2ccc3nc(N)nc(N)c3c2C)cc(OC)c1OC`, which T/C (dose: 90.0 mg/kg/injection, schedule: Q01DX009 (ip), vehicle: distilled water + Tween-80) is on record?
**A.** 115 % of control and 160 % of control

**Q.** With `CCOC1NC(=O)Oc2ccccc21` (centres undefined) as the molecule, how does the T/C (dose: 200.0 mg/kg/injection, schedule: Q01DX005 (ip), vehicle: Klucel (hydroxypropylcellulose) (HPC)) read?
**A.** 123 % of control and 158 % of control

**Q.** Which T/C (dose: 18.75 micrograms/kg/injection, schedule: Q04DX003 (ip), vehicle: saline with Tween-80) does the source give for `COc1cccc2c1C(=O)c1c(O)c3c(c(O)c1C2=O)C[C@@](O)(C(=O)CO)C[C@@H]3OC1CC(N2CCOCC2C#N)C(O)C(C)O1` (some centres undefined) here?
**A.** 109 % of control and 175 % of control

**Q.** How did the T/C (dose: 30.0 mg/kg/injection, schedule: Q01DX005 (ip), vehicle: saline with Tween-80) turn out when `c1ccc(OCC2CO2)c(OCC2CO2)c1` (centres undefined) was run?
**A.** 123 % of control and 161 % of control
